Hit rate of the full screen: of about 360,000 compounds, about 16,000 (4.4%) were called active. The shares of active, inactive and inconclusive entries below differ from those in the screen. Calls follow the shape of the dose curve; as a rule, active = well fitted inhibition curve with a large enough effect; inconclusive = small, poorly fitted or top-dose-only effect; inactive = no such curve, though single readings can be large or run the other way. Potencies beside an inconclusive call are fits to weak or partial responses and may not hold up.
These compounds were tested against Bromodomain adjacent to zinc finger domain protein 2B (Homo sapiens) (UniProt Q9UIF8) (assay: qHTS Assay for Inhibitors of BAZ2B). Settings: AlphaScreen BAZ2B-H3K14Ac peptide displacement; activity change, negative = inhibition: at 114 µM (top of the series).
Summary of the method: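 AlphaScreen displacement: compounds (up to 110uM) incubated 30 min at room temperature with a preformed 50 nM BAZ2B/50 nM biotinylated H3K14Ac peptide complex in PBS pH 7.4 with Tween-20. Donor and acceptor beads at 10 ug/mL final added, 20 min light-protected before reading.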
% is scaled to controls: 0 for no effect and ±100 for the full control effect; potency is read from the fitted curve at half-maximal effect; tags tell the direction and shape of the fitted curve.
Also: nearly all actives have a fitted effect of over 60% in size.

Sequence of UniProt Q9UIF8 (Q9UIF8 whole entry, looked up, the tested form may be a part): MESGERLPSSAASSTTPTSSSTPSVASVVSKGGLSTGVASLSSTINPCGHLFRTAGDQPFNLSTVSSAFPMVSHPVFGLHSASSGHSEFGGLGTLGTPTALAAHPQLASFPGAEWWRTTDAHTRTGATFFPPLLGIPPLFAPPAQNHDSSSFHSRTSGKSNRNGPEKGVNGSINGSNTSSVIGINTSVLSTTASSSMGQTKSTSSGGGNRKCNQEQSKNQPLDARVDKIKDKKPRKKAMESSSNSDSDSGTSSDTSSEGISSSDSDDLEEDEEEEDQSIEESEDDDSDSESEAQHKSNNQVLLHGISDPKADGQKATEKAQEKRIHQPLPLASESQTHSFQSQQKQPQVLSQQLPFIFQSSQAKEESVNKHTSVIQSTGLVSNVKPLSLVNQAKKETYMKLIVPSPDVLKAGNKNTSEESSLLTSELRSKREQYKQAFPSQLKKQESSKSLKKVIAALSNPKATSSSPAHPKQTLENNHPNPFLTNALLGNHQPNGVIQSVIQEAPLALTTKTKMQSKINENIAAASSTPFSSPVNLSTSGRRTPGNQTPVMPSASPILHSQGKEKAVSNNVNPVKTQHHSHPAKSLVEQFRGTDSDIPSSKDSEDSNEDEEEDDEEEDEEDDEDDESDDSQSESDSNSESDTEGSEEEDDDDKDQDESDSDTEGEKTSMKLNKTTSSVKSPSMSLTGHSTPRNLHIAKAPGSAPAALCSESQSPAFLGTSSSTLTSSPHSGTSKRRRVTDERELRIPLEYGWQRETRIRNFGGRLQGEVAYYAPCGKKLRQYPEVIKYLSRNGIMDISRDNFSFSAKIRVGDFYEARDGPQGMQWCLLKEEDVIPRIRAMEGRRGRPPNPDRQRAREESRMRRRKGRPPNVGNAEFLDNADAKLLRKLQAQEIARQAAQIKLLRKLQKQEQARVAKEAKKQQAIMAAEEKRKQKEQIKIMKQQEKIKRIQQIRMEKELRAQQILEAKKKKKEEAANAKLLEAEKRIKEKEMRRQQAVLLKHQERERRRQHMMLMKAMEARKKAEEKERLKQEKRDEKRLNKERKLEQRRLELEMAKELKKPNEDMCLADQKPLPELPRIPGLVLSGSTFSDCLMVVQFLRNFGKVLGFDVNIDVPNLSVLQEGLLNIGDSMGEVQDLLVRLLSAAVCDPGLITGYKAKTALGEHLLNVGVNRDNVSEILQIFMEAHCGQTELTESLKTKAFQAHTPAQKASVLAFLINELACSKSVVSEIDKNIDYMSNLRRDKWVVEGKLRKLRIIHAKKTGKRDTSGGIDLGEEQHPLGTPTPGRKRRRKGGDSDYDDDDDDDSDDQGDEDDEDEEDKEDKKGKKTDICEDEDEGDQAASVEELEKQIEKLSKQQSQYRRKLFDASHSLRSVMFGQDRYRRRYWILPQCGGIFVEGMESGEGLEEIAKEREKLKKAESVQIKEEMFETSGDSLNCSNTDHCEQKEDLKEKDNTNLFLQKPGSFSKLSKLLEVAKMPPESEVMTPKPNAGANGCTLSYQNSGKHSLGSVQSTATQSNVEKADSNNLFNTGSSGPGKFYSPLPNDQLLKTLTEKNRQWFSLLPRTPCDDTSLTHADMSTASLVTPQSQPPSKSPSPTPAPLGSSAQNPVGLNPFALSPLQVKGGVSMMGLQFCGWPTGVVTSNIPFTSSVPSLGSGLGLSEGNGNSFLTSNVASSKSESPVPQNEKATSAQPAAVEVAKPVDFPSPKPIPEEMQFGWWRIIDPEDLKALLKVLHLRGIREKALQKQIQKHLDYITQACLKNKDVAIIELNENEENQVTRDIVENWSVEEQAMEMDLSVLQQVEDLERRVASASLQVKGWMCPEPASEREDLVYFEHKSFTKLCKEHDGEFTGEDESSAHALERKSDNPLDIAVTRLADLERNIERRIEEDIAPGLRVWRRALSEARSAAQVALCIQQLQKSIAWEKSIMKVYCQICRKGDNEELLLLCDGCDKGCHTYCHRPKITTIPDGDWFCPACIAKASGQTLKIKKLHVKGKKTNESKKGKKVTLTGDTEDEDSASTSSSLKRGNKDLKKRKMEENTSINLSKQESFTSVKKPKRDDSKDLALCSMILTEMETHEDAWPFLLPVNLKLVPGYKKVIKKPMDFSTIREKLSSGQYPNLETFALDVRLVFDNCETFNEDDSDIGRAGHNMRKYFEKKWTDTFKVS

Structure (SMILES)	activity change, negative = inhibition	Potency
CN1CCN(S(=O)(=O)c2cccs2)CC1	inactive: -14.1%	–
Cc1cc(C)c2c(c1)c(C)cc1nnc(SCC(=O)NCc3ccco3)n12	–	inconclusive: 56.2 µM [inhibitor, partial curve]
CCCCOC(=O)CSC1=C(C#N)C(c2ccccc2OC)C(C#N)C(=O)N1 (stereo not given)	–	inconclusive: 50.1 µM [inhibitor, partial curve]
Cc1c(S(=O)(=O)c2ccccn2)c(N)n(Cc2ccccc2Cl)c1C	–	inconclusive: 79.4 µM [inhibitor, single point]
CCC(C)NC(=O)c1ccc(CN2CCc3ccccc3C2)cc1 (stereo not given)	–	inconclusive: 89.1 µM [inhibitor, single point]
CCOC(=O)c1ccc(N=c2sc(C(=O)OC)cc(=O)n2CCCN2CCOCC2)cc1	–	active: 50.1 µM
CCOC(=O)C1CCN(C2=NC(=O)/C(=C/c3ccc(Cl)cc3)S2)CC1	–	inconclusive: 79.4 µM [inhibitor, single point]
COc1cccc(C2C3=C(Nc4[nH]n(-c5ccccc5)c(=O)c42)c2ccccc2C3=O)c1 (stereo not given)	–	inconclusive: 89.1 µM [inhibitor, single point]
CCOc1cccc(C2C(C(=O)c3ccc(C)o3)=C(O)C(=O)N2Cc2ccncc2)c1 (stereo not given)	–	inconclusive: 89.1 µM [inhibitor, single point]
CCCCn1c(Cc2ccccc2)nnc1SCC(=O)N1CCOCC1	inactive: -3.36%	–
CN(C)CCN(C(=O)C1CCN(S(=O)(=O)c2cccs2)CC1)c1nc2ccc(F)cc2s1	–	inconclusive: 56.2 µM [inhibitor, partial curve]
Cc1ccc(CSCCNC(=O)c2ccc(NS(C)(=O)=O)cc2)cc1	inactive: -6.27%	–
O=C(NC(=S)Nc1ccccc1N1CCCC1)c1ccco1	–	active: 39.8 µM
COc1ccc(CNC(=O)CCSc2nc(-c3ccc4c(c3)OCO4)cc(C(F)(F)F)n2)cc1	inactive: 57.8%	–
CCn1cc(C(=O)N[C@@H](C)C(=O)OC)c(=O)c2cc3c(cc21)OCO3	inactive: 2.96%	–
COc1ccc(OCC(=O)NNC(=O)c2cccc(S(=O)(=O)N(C)C)c2)cc1	inactive: 4.09%	–
CN(Cc1ccccc1)C1CCN(Cc2ccccc2[N+](=O)[O-])CC1	–	active: 20 µM
O=C(Nc1ccc(S(=O)(=O)N2CCOCC2)cc1)c1cc([N+](=O)[O-])ccc1Cl	–	inconclusive: 79.4 µM [inhibitor, single point]
Cc1ccc(C2C(C(=O)c3ccco3)=C(O)C(=O)N2c2nnc(C)s2)cc1 (stereo not given)	inactive: -32.6%	–
COc1cc(C(=S)N2CCCC2)ccc1OCc1ccccc1	–	inconclusive: 79.4 µM [inhibitor, single point]
CCOC(=O)c1cnc2c(-c3ccccc3)c(C)nn2c1N	–	inconclusive: 89.1 µM [inhibitor, single point]
COc1ccc(-c2coc3cc4oc(=O)cc(C)c4cc23)cc1F	–	inconclusive: 89.1 µM [inhibitor, single point]
COc1cccc(NC(=O)NCc2cccn2C)c1	–	inconclusive: 79.4 µM [inhibitor, single point]
Cc1ccccc1NC(=O)/C(=C/c1ccco1)c1ccccc1	–	inconclusive: 70.8 µM [inhibitor, single point]
COc1cc(C2c3sc(=O)[nH]c3SC3C(=O)N(c4ccc(Br)cc4)C(=O)C32)ccc1O (stereo not given)	–	inconclusive: 50.1 µM [inhibitor, partial curve]

Structure (SMILES)	activity change, negative = inhibition	Potency
Cc1ccc(N=Cc2ccc[nH]2)c(O)c1	–	inconclusive: 89.1 µM [inhibitor, single point]
O=C(O)c1ccc(NC2=C(n3nnc4ccccc43)C(=O)c3ccccc3C2=O)cc1	inactive: -21.3%	–
Oc1ccc(Cl)cc1CNCC1CCCO1 (stereo not given)	–	active: 50.1 µM
Cn1c(=O)c(C(=O)c2ccccc2)nc2ccccc21	inactive: 5.55%	–
CC(=O)Nc1ccc(S(=O)(=O)N2CCC(NC(=O)C(Cc3cccc(F)c3)NC(C)=O)CC2)cc1 (stereo not given)	inactive: -7.71%	–
O=C(COC(=O)Cc1ccc(-c2ccccc2)cc1)NCc1ccccc1	inactive: 2.54%	–
CC1(CCc2ccc3c(c2)OCO3)NCCc2c1[nH]c1ccccc21 (stereo not given)	inactive: -38.2%	–
NC(=O)C1(N2CCCCC2)CCN(C(=O)NC2CCCCC2)CC1	–	inconclusive: 89.1 µM [inhibitor, single point]
COc1ccc2sc(N(Cc3cccnc3)C(=O)C3CCCCC3)nc2c1	inactive: -18.6%	–
CN(C)c1ccc(CNc2ccc3c(c2)ncn3C)cc1	–	active: 17.8 µM
Cc1ccc(SCC(=O)NC(=O)Nc2ccc3c(c2)OCCO3)cc1C	inactive: 4.2%	–
CCc1ccc(NC(=O)CN2C(=O)C(c3ccc(C)cc3)=NC23CCCCC3)cc1	inactive: -2.98%	–
O=C(c1ccc(F)cc1)C(CCCCCC(CN1CCOCC1)C(=O)c1ccc(F)cc1)CN1CCOCC1 (stereo not given)	–	inconclusive: 44.7 µM [inhibitor, partial curve]
C#CCOCCOCCOCCNc1nc(N2CCN(C(=O)[C@H](CCCCN)n3cc(C(N)CO)nn3)CC2)nc(N2CCN(C(=O)[C@H](CCC(=O)O)n3cc(C(N)Cc4ccc(O)cc4)nn3)CC2)n1 (stereo not given in full)	–	active: 17.8 µM
CCc1ccc(-c2cn(C3CCCCC3)c(=S)[nH]2)cc1	–	active: 17.8 µM
CCN(CC)S(=O)(=O)c1cc(C(=O)Nc2ccccc2[N+](=O)[O-])ccc1Cl	–	inconclusive: 25.1 µM [inhibitor, full curve]
COCC(COS(N)(=O)=O)Cc1ccccc1 (stereo not given)	inactive: -11.8%	–
O=c1c2cc(F)ccc2sn1-c1ccc(F)cc1	–	active: 10 µM
Cc1sc2ncnc(Nc3ccc(N4CCOCC4)cc3)c2c1-c1ccccc1	–	inconclusive: 70.8 µM [inhibitor, single point]
COc1ccc(N2CCN(Cc3csc(C)c3-c3ccc(C)cc3)CC2)cc1	–	active: 28.2 µM
Cc1cccc(NS(=O)(=O)c2ccc3[nH]c4c(c3c2)CCCCCC4)c1	inactive: -28.8%	–
CCOc1cccc2c1N[C@@H](c1ccc(C(=O)O)cc1)[C@H]1CC=C[C@@H]21	–	active: 15.8 µM
CC(C)(C)NCCCOc1ccc(Cl)cc1C(C)(C)C	–	inconclusive: 89.1 µM [inhibitor, single point]
Cc1ccc(C)c(N2CCN(C(=O)c3cc4c(=O)n(Cc5ccccc5)ccc4nc3C)CC2)c1	–	inconclusive: 79.4 µM [inhibitor, single point]
Nc1ccc(Nc2nc3ccccc3[nH]2)cc1	–	active: 44.7 µM

Structure (SMILES)	activity change, negative = inhibition	Potency
CCOc1ccc2nc(N(Cc3ccccc3)C(=O)CCNC(C)=O)sc2c1	inactive: -31.3%	–
Cc1ccc(CN(Cc2ccco2)C(=O)c2ccc(OCC(C)C)cc2)cc1	inactive: 1.54%	–
CCOCCCNCc1ccc(OC)cc1	–	inconclusive: 89.1 µM [inhibitor, single point]
CCCCN1CCc2nc(Nc3ccc(OC)cc3OC)ncc2C1	–	inconclusive: 79.4 µM [inhibitor, partial curve]
CCOC(=O)C1=C(C)NC(=O)NC1c1ccco1 (stereo not given)	–	active: 79.4 µM
O=C(Nc1cccc(C(=O)N2CCN(c3cccc(Cl)c3)CC2)c1)c1ccccc1	–	inconclusive: 70.8 µM [inhibitor, single point]
S=C(NCc1ccccc1)NCc1cccc(Cl)c1	inactive: 2.72%	–
Cn1c(SCc2cc(=O)n3cc(Br)ccc3n2)nnc1C1COc2ccccc2O1 (stereo not given)	–	inconclusive: 89.1 µM [inhibitor, single point]
CCOC(=O)c1c(-c2ccccc2)oc2ccc(N(C(C)=O)S(=O)(=O)c3ccc(CC)cc3)cc12	inactive: -11.8%	–
NC(=S)N/N=C/c1ncc(C(F)(F)F)cc1Cl	–	active: 50.1 µM
CCOc1ccccc1N(C(=O)c1snc(C(N)=O)c1N)C(C(=O)NC1CCCC1)c1ccco1 (stereo not given)	–	inconclusive: 89.1 µM [inhibitor, single point]
O=C(CN1CCCc2ccccc21)NCCc1ccc(Cl)cc1	–	inconclusive: 44.7 µM [inhibitor, partial curve]
CCc1ccc(C(C)NC(=O)c2cc(C)oc2C)cc1 (stereo not given)	inactive: -3.11%	–
COc1ccccc1CCC(=O)Nc1cc(S(=O)(=O)N2CCCCC2)ccc1N1CCN(C)CC1	–	inconclusive: 70.8 µM [inhibitor, partial curve]
COc1ccc(N=C2SC(CC(=O)Nc3ccccc3OC)C(=O)N2Cc2ccco2)cc1 (stereo not given)	–	inconclusive: 56.2 µM [inhibitor, partial curve]
COc1ccc(-c2csc(NC(=S)NC(=O)c3ccc4ccccc4c3)n2)cc1OC	–	inconclusive: 3.55 µM [inhibitor, full curve, poor fit]
CC(C)c1nc(C(=O)N2CCc3c([nH]c4ccccc34)C2c2ccccn2)cs1 (stereo not given)	–	active: 22.4 µM
CCc1cccc(NC(=O)C2CCCN(S(=O)(=O)c3c(C)[nH]c(=O)[nH]c3=O)C2)c1 (stereo not given)	–	inconclusive: 89.1 µM [inhibitor, single point]
Cc1nn(C(=O)c2cccc(Cl)c2)c(C)c1S(=O)(=O)N1CCOCC1	inactive: 6.53%	–
CC(=O)/C(=N\Nc1ccccc1)Sc1cccc2cccnc12	–	inconclusive: 44.7 µM [inhibitor, partial curve]
CCn1c(=O)cc(SCC(=O)NCc2ccc(OC)cc2OC)c2ccccc21	inactive: -15.3%	–
C=CCNC(=S)NC(=O)c1ccc(C)c(Br)c1	–	inconclusive: 63.1 µM [inhibitor, partial curve, poor fit]
C(=Nc1cccc2c(N=Cc3ccco3)cccc12)c1ccco1	–	active: 28.2 µM
O=c1[nH]c2cc3c(cc2cc1CN(Cc1cccnc1)C(=S)NCc1ccco1)OCO3	–	inconclusive: 22.4 µM [inhibitor, full curve]
O=C(COC(=O)Cc1ccccc1F)Nc1ccccc1[N+](=O)[O-]	–	inconclusive: 50.1 µM [inhibitor, partial curve]

From PubChem BioAssay AID504333 (National Center for Advancing Translational Sciences (NCATS), 2011)
